# Source: paper PMC4336329 (PLoS ONE, 2015)
# Screen size: about 310,000 compounds; about 2,200 (0.71%) showed an effect of 50% or more. The effect is printed as a negative number. This is one part of the list.
# Target: human ether-à-go-go-related gene (hERG) potassium channel (human, UniProt Q12809)
# Test: primary screen, population patch clamp on CHO cells stably expressing hERG
# human ether-à-go-go-related gene (hERG) potassium channel, sequence (Q12809 whole entry, looked up): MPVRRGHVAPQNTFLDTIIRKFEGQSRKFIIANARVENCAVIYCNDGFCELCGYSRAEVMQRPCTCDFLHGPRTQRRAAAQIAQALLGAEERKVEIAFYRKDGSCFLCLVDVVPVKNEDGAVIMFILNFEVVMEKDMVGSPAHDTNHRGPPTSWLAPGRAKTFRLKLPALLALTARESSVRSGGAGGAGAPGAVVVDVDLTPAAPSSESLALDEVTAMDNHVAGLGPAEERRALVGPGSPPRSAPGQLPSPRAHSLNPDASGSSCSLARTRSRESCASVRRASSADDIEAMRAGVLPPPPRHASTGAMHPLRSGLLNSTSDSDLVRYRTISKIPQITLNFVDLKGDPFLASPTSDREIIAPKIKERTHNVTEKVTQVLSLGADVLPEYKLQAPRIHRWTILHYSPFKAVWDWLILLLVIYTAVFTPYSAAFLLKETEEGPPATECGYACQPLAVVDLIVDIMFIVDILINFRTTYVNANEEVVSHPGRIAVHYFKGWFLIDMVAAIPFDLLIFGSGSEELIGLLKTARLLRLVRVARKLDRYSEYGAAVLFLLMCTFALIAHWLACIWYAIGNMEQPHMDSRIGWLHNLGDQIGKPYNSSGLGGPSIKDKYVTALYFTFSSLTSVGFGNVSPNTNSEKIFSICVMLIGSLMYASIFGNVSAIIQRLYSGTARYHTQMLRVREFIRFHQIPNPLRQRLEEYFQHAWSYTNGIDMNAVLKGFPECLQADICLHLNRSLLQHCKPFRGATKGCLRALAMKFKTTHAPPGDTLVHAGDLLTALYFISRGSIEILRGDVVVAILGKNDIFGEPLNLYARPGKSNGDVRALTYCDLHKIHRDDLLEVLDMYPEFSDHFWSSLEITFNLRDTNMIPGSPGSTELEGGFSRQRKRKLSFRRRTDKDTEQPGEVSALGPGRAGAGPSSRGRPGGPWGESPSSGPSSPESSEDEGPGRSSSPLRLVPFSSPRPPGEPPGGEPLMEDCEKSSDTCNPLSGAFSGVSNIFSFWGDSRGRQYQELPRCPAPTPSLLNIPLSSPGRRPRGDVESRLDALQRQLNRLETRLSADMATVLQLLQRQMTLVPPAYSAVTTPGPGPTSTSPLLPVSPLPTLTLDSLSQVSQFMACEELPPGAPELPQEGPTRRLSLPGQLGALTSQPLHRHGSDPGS
row,SMILES,"hERG current change (%, negative = inhibition) at 1uM [%]"
1,S=c1[nH]c(-c2ccc(Cl)cc2)cs1,16.2
2,CC(C)C(OC(=O)c1ccco1)C(=O)NC1CCCC1 (centres unmarked),10.7
3,COc1ccccc1N(CC(=O)NC1CCCCC1)C(=O)c1cnn(C(C)C)c1,1.25
4,Nc1nnc2c(n1)CCCC2,-8.6
5,CCOc1ccc(S(=O)(=O)NCCC(=O)N2CCCCCCC2)cc1,6.86
6,O=C(CSc1nc(-c2ccncc2)nn1CC(=O)N1CCCCC1)NC1CCCC1,-9.75
7,CCCC(=O)Nc1nnc(S(=O)(=O)N(C)Cc2ccco2)s1,10.8
8,Cc1cc(C)c([N+](=O)[O-])cc1NCC(=O)N1CCN(c2ccccc2)CC1,17.5
9,CC(C)COc1ccc(-c2cc(C(=O)NN)[nH]n2)cc1,11.4
10,O=c1c2ccccc2nnn1CSc1nnc(-c2cccnc2)n1-c1ccccc1F,12.1
11,CCOc1ccc(CCNC(=O)CS(=O)Cc2nc(-c3ccc(OC)c(OC)c3)oc2C)cc1OCC (centres unmarked),10
12,CN1CCN(C(=S)Nc2ccc(S(N)(=O)=O)cc2)CC1,12.8
13,COc1ccc(OC)c(CNc2ncc(-c3cccc([N+](=O)[O-])c3)n2C)c1.O=C(O)C(=O)O,-11.2
14,Nc1nnc(CSc2ccc(Cl)cc2)s1,14.7
15,Cc1cc(C)c2c(c1)C1C=CCC1C(c1ccc(S(=O)(=O)N3CCOCC3)cc1)N2 (centres unmarked),13.8
16,CC(C)(C)NC(=O)CN(C(=O)Cn1nnc(-c2ccc(Cl)cc2)n1)C1CCN(Cc2ccccc2)CC1,10.6
17,Cc1ccc(Cn2c(SCC(=O)N/N=C/c3ccccc3OCC(=O)O)nc3ccccc32)cc1,7.61
18,O=[N+]([O-])c1cccc(-c2cn(-c3ccccc3)c(=S)[nH]2)c1,11.4
19,CC1=NN(C(N)=S)C(=O)C1N=Nc1c(Cl)cc([N+](=O)[O-])cc1Cl (centres unmarked),10.5
20,COc1ccc2nc(Sc3c([N+](=O)[O-])nc(C)n3Cc3ccccc3)[nH]c2c1,5.85
21,O=C(NC12CC3CC(CC(C3)C1)C2)c1cccc([N+](=O)[O-])c1,11.1
22,Cc1ccc(NC(=O)Cn2c(=O)c3cccn3c3ccccc32)cc1,10.8

row,SMILES,"hERG current change (%, negative = inhibition) at 1uM [%]"
1,Cc1ccccc1SCC(=O)OCC(=O)Nc1ccc(N(C)C)cc1,7.98
2,Nc1nnc(SCC(=O)NNC(=O)c2ccc([N+](=O)[O-])cc2)s1,16.6
3,Cc1ccc(C)c(-c2nn(-c3cc(N4CCN(CCO)CC4)ccc3[N+](=O)[O-])c(=O)c3ccccc23)c1,-0.228
4,Cc1c(C(=O)NNC(=O)c2csc(N3CCOCC3)n2)cccc1[N+](=O)[O-],9.03
5,Cc1cccc(C2c3[nH]c4ccccc4c3CCN2C(=O)Cc2nc(-c3ccccc3)n[nH]2)n1 (centres unmarked),8.33
6,O=C(CN1C(=O)C(=O)N(Cc2ccco2)C1=O)c1c[nH]c2ccccc12,13.6
7,CCCCP(=O)(CCCC)Cc1ccccc1,12.9
8,COCCC(=O)N1CCC(Oc2ccc(C(=O)N3C[C@@H]4CCC[C@H]3C4)cc2)CC1,5.49
9,CC(Cc1ccccc1)NC(=O)/C=C/c1ccc(Cl)cc1 (centres unmarked),8.25
10,CC(/C=C/c1ccccc1)=N/NC(=O)CNC(=O)c1ccc2c(c1)OCO2,3.05
11,O=C(c1cccnc1)n1nc(NCc2ccccc2)nc1NCc1ccccc1,-0.112
12,NC(=O)CCCCC(=O)OCCCc1cccs1,9.25
13,COc1ccc(Cc2nc3ccc(C(=O)NCCn4cccn4)cc3o2)cc1,0.926
14,COc1ccc(CNC(=O)CN(c2ccccc2)S(=O)(=O)c2ccccc2[N+](=O)[O-])cc1,2.89
15,S=C(Nc1ccc(Br)cc1Cl)Nn1cnnc1,20.3
16,Cc1ccn2c(NC3CCCCC3)c(-c3cccc(-c4cccc(Cl)c4)c3)nc2c1.O=C(O)C(F)(F)F,11.3
17,Cc1cc(C)c(C)c(S(=O)(=O)NCC(=O)NCC2CCCCC2)c1C,18.4
18,CC(NCCN(C)C)C(=O)C12CC3CC(CC(C3)C1)C2.Cl (centres unmarked),12.1
19,O=C(O)CC(NC(=O)CCc1ccccc1)c1ccc(Cl)cc1 (centres unmarked),11.7
20,Cn1c(=O)c2c(nc(CN3CCN(CCO)CC3)n2CCc2ccccc2)n(C)c1=O,14.3
21,O=S(=O)(c1ccccc1)C1(S(=O)(=O)c2ccccc2)CCCC1,8.34
22,COCCN1C=C(C(=O)OC)C(c2ccc(Cl)cc2)C(C(=O)OC)=C1,6.88

row,SMILES,"hERG current change (%, negative = inhibition) at 1uM [%]"
1,CCOc1ccc(OCC)c(NC(=O)CCCN2C(=O)c3cccnc3C2=O)c1,10.2
2,O=c1[nH]c(CN2CCCC2)nc2sc3c(c12)CCC3,4.54
3,CCn1cnc2cc(NCc3ccccc3Cl)ccc21,-10.3
4,CCCCOC(=O)C(NC(=O)c1ccccc1)=C(C)C,7.06
5,Cc1cccc(N(CC(N)=O)S(C)(=O)=O)c1C,19.6
6,Cc1ccc(C)c(OCC(=O)Nc2ccc(S(=O)(=O)Nc3ncccn3)cc2)c1,3.31
7,COc1cc(OC)cc(C(=O)N[C@H](C(=O)Nc2ccc(S(=O)(=O)N(C)C)cc2)C(C)C)c1,13.4
8,CCCNC(=O)CCc1nnc2ccc(N3CCC(C)CC3)nn12,12.3
9,Br.COc1ccc(-c2csc(Cc3nnc4n3CCCCC4)n2)cc1OC,-6.22
10,CCOC(=O)Cc1csc(NC(=O)c2c(-c3c(F)cccc3Cl)noc2C)n1,0.134
11,CCOc1ccc(C(=O)Nc2ccc(Cc3ccncc3)cc2)cc1Br,22.1
12,CCOC(=O)C1(CC2CCCCO2)CCN(Cc2cc3ccccc3[nH]2)CC1 (centres unmarked),2.61
13,COCC(=O)NNS(=O)(=O)c1ccccc1[N+](=O)[O-],11.5
14,Cc1cc(C)c(S(=O)(=O)CCC(C)C)c(=O)[nH]1,11.1
15,N#Cc1c(SCC(N)=O)nc(-c2ccccc2)c2c1CCCC2,12.8
16,O=C(COC(=O)c1cc(Cl)ccc1[N+](=O)[O-])NCc1ccc(Cl)cc1Cl,2
17,CC(C)CC1=NN(C(=O)c2ccco2)C(O)(C(F)(F)F)C1 (centres unmarked),20.4
18,COc1cccc(C2NC(=O)CCC2[N+](=O)[O-])c1 (centres unmarked),4.31
19,CCCCCN(C(=O)COC(=O)c1ccc(Br)o1)c1c(N)n(CCCC)c(=O)[nH]c1=O,-0.908
20,Cc1ccc(N2C(=O)Nc3ccc(Br)cc3C2(O)C(=O)NCCN(C)C)cc1C (centres unmarked),11.4
21,COc1ccc(CC(=O)Nc2c(C(=O)N3CCN(c4ccccc4)CC3)oc3ccccc23)cc1OC,-8.82
22,Cc1nn(C(=O)c2nn(C)cc2[N+](=O)[O-])c(C)c1Br,10

row,SMILES,"hERG current change (%, negative = inhibition) at 1uM [%]"
1,O=C1CC(N2CCN(c3cccc(C(F)(F)F)c3)CC2)C(=O)N1c1ccc(F)cc1 (centres unmarked),-7.18
2,CC(=O)n1cc([C@H]2C=C(C(N)=O)O[C@@H](OCc3ccc(CO)cc3)C2)c2ccccc21,1.24
3,COc1cccc(CN(C)CC(=O)Nc2ccccc2C(=O)NC2CC2)c1,-10.2
4,COCCn1nnnc1C(c1cc2cc(OC)c(OC)cc2[nH]c1=O)N1CCN(c2ccc(O)cc2)CC1 (centres unmarked),13.9
5,CNCC(=O)Nc1c(C)n[nH]c1C,11.3
6,CCCCC1=CC2=CC(=O)C(C)(OC(=O)CC)C(=O)C2=CN1c1cccc(C#N)c1 (centres unmarked),10.7
7,O=C(O)CC1S/C(=N/N=C/c2ccc(-c3ccc(Cl)cc3[N+](=O)[O-])o2)NC1=O (centres unmarked),7.9
8,Cc1ccc2nc(Cl)c(/C=N/Nc3nc(C)cc(C)n3)c(=O)n2c1,-0.611
9,C=CCn1c(SCC(=O)c2c(N)n(C)c(=O)n(C)c2=O)nc2sc(CC)cc2c1=O,-7.91
10,CC(C)c1cccc(C(C)C)c1NC(=O)COC(=O)C1=COCCO1,7.2
11,Fc1ccccc1NC(=S)Nc1ccc(CN2CCOCC2)cc1,7.21
12,O=C1CCC(C(=O)N2CCc3c(Cl)cccc3C2)CN1CCCN1CCOCC1 (centres unmarked),23
13,Nc1c(S(=O)(=O)c2ccccc2)c2nc3ccccc3nc2n1Cc1ccco1,-10.3
14,Cn1c(=O)n(-c2ccc(Cl)cc2)c(=O)c2c3c(sc21)COC(C)(C)C3,12
15,O=C(Nn1c(Cc2cccs2)nc2ccccc2c1=O)c1cccs1,-0.502
16,CC(C)COc1ccc(CNC(=S)N/N=C/c2ccc([N+](=O)[O-])cc2)cc1,1.75
17,CCOC(=O)c1ccc(NC(=O)c2cccc(S(=O)(=O)N3CCOCC3)c2)cc1,0.504
18,Cc1ccccc1CCN1CCCC(CN(C)CC(C)(C)C)C1 (centres unmarked),11.8
19,CC(C)CC(=O)NCc1ccc(F)cc1,16.5
20,N#CC(C(=O)OC1CCCCC1)c1nc2ccccc2nc1N1CCOCC1 (centres unmarked),-22.9
